Measurements published in the supplement of paper PMC10369915.
Some of the results follow. Rule as the data show it: active = 3.2 or more and inactive = the rest. Most of these values are background signal.

Tests used:
Experiment in all cases: enrichment score (SH2-bound / input frequency) (ratio); bacterial display of known human phosphotyrosine sites (pTyr-Var adds point mutants) read by sequencing; higher = stronger binding; tyrosines were phosphorylated by kinases first
Conditions in all cases: peptide library: pTyr-Var
SHP2 C-SH2 domain E139D = target: SHP2 C-SH2 domain E139D
[1] = target: SHP2 C-SH2 domain wild-type
SHP2 N-SH2 domain L43F = target: SHP2 N-SH2 domain L43F
SHP2 N-SH2 domain T42A = target: SHP2 N-SH2 domain T42A
SHP2 N-SH2 domain T52S = target: SHP2 N-SH2 domain T52S
[2] = target: SHP2 N-SH2 domain wild-type

Measured: enrichment score
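Also: displayed peptides selected on beads carrying the immobilized SH2 domain, with library peptides lacking any tyrosine serving as negative controls.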

GLGGVYGGASG [KRT8_Y54_G53V]
inactive: SHP2 C-SH2 domain E139D 0.604 | [1] 0.658 | SHP2 N-SH2 domain L43F 0.599 | SHP2 N-SH2 domain T42A 0.607 | SHP2 N-SH2 domain T52S 0.596 | [2] 1.05

GLSSAYGDLTS [KRT8_Y427_G429D]
inactive: SHP2 C-SH2 domain E139D 0.711 | [1] 0.594 | SHP2 N-SH2 domain L43F 0.652 | SHP2 N-SH2 domain T42A 0.454 | SHP2 N-SH2 domain T52S 0.638 | [2] 0.66

GLRYGYGVLGG [KRTAP20-2_Y15]
inactive: SHP2 C-SH2 domain E139D 1.06 | [1] 0.923 | SHP2 N-SH2 domain L43F 0.878 | SHP2 N-SH2 domain T42A 0.841 | SHP2 N-SH2 domain T52S 0.9 | [2] 0.945

YGGLRYGYGVL [KRTAP20-2_Y13]
inactive: SHP2 C-SH2 domain E139D 0.789 | [1] 0.852 | SHP2 N-SH2 domain L43F 0.794 | SHP2 N-SH2 domain T42A 0.663 | SHP2 N-SH2 domain T52S 0.787 | [2] 0.933

ANAYIYVVQLP [L1CAM_Y420]
inactive: SHP2 C-SH2 domain E139D 1.44 | [1] 1.19 | SHP2 N-SH2 domain L43F 1.34 | SHP2 N-SH2 domain T42A 1.21 | SHP2 N-SH2 domain T52S 0.952 | [2] 1.28

FGGLRYGFGGL [KRTAP20-2_Y13_V17G_YF]
inactive: SHP2 C-SH2 domain E139D 1.16 | [1] 0.936 | SHP2 N-SH2 domain L43F 0.812 | SHP2 N-SH2 domain T42A 0.784 | SHP2 N-SH2 domain T52S 0.815 | [2] 1.29

LLANAYIFVVQ [L1CAM_Y418_YF]
inactive: SHP2 C-SH2 domain E139D 0.914 | [1] 1.25 | SHP2 N-SH2 domain L43F 1.31 | SHP2 N-SH2 domain T42A 0.828 | SHP2 N-SH2 domain T52S 0.913 | [2] 1.64

ANAYIYDVQLP [L1CAM_Y420_V421D]
inactive: SHP2 C-SH2 domain E139D 0.762 | [1] 1.38 | SHP2 N-SH2 domain L43F 0.686 | SHP2 N-SH2 domain T42A 0.691 | SHP2 N-SH2 domain T52S 1.23 | [2] 0.865

IHSGIYYKPES [L2HGDH_Y102]
inactive: SHP2 C-SH2 domain E139D 1.4 | [1] 1.06 | SHP2 N-SH2 domain L43F 1.16 | SHP2 N-SH2 domain T42A 1.28 | SHP2 N-SH2 domain T52S 1.47 | [2] 1.21

ANAFIYVVQLP [L1CAM_Y420_YF]
inactive: SHP2 C-SH2 domain E139D 1.22 | [1] 1.15 | SHP2 N-SH2 domain L43F 1.19 | SHP2 N-SH2 domain T42A 0.984 | SHP2 N-SH2 domain T52S 0.919 | [2] 1.14

LLPNAYIYVVQ [L1CAM_Y418_A415P]
inactive: SHP2 C-SH2 domain E139D 0.772 | [1] 0.873 | SHP2 N-SH2 domain L43F 0.664 | SHP2 N-SH2 domain T42A 0.709 | SHP2 N-SH2 domain T52S 0.661 | [2] 0.876

GLSSAYGGLTS [KRT8_Y427]
inactive: SHP2 C-SH2 domain E139D 0.495 | [1] 0.537 | SHP2 N-SH2 domain L43F 0.517 | SHP2 N-SH2 domain T42A 0.469 | SHP2 N-SH2 domain T52S 0.463 | [2] 0.519

EVRAQYEEIAQ [KRT76_Y361]
inactive: SHP2 C-SH2 domain E139D 0.763 | [1] 0.879 | SHP2 N-SH2 domain L43F 0.803 | SHP2 N-SH2 domain T42A 1.39 | SHP2 N-SH2 domain T52S 0.623 | [2] 0.829

GLRFGYGVLGG [KRTAP20-2_Y15_YF]
inactive: SHP2 C-SH2 domain E139D 1.03 | [1] 1.08 | SHP2 N-SH2 domain L43F 0.994 | SHP2 N-SH2 domain T42A 0.924 | SHP2 N-SH2 domain T52S 1.03 | [2] 0.891

KTTSGYAGGLS [KRT8_Y419]
inactive: SHP2 C-SH2 domain E139D 0.586 | [1] 0.67 | SHP2 N-SH2 domain L43F 0.747 | SHP2 N-SH2 domain T42A 0.555 | SHP2 N-SH2 domain T52S 0.699 | [2] 0.794

YGGLRYGYGGL [KRTAP20-2_Y13_V17G]
inactive: SHP2 C-SH2 domain E139D 1 | [1] 0.841 | SHP2 N-SH2 domain L43F 0.853 | SHP2 N-SH2 domain T42A 0.757 | SHP2 N-SH2 domain T52S 0.8 | [2] 0.904

GLRYGYGGLGG [KRTAP20-2_Y15_V17G]
inactive: SHP2 C-SH2 domain E139D 0.841 | [1] 0.786 | SHP2 N-SH2 domain L43F 0.88 | SHP2 N-SH2 domain T42A 0.659 | SHP2 N-SH2 domain T52S 0.846 | [2] 0.698

LLANAYIFDVQ [L1CAM_Y418_V421D_YF]
inactive: SHP2 C-SH2 domain E139D 1.48 | [1] 1.22 | SHP2 N-SH2 domain L43F 1.25 | SHP2 N-SH2 domain T42A 1 | SHP2 N-SH2 domain T52S 1.36 | [2] 1.49

KTTGGYAGGLS [KRT8_Y419_S417G]
inactive: SHP2 C-SH2 domain E139D 0.742 | [1] 0.675 | SHP2 N-SH2 domain L43F 0.453 | SHP2 N-SH2 domain T42A 0.618 | SHP2 N-SH2 domain T52S 0.633 | [2] 0.69
